Laboratory results reported in the RNAGym collection of RNA variant scans (doi:10.7554/elife.90254).
The source gives no read counts; variants with many changes may rest on few reads.

B1: LINE1-mini (parent)
chain: GGCAGAGCUCAACACAGCGUGGCAAAGUGGCUGUGGCUAGACUGCC

Variants of: B1
Assay: self-cleavage, relative activity (ratio to wild type); higher = more cleavage; in vitro, sequencing; the parent is a self-cleaving ribozyme

Row | Variant | self-cleavage
1 | U9G G21U A26G G36C | 0
2 | C10A A12G C23U | 0.02
3 | C10A C15G G36A | 0
4 | C10A A12C A26C | 0.03
5 | C10A A11G A25U | 0.03
6 | U9G G22U G35U | 0.03
7 | U9G C31U A39C | 0
8 | C10A A14C U34G G36A | 0
9 | C10A A16G G17C C31G | 0.02
10 | C10A A24U G35A C42A | 0.02
11 | C10A A12G C15A G22C | 0.03
12 | C10A A16C G30A C31U G40U | 0.02
13 | C10A A16U G40U C45G | 0.01
14 | C10A A14C A41G | 0
15 | C10A A25G U28G U38C | 0.12
16 | C10A A26U G40U | 0.08
17 | C10A A26C G27A | 0.01
18 | U9G G21U G33A | 0.04
19 | C10A C18G U20C | 0.07
20 | C10A C13U G21U C31U C37A | 0.02
21 | C10A C15A G21U C42U C45A | 0.01
22 | C10A C13U C18G G27C | 0.01
23 | C10A A12U G27U U34C | 0.02
24 | U9G G36A A39U | 0.15

Row | Variant | self-cleavage
25 | U9G G27A U43C | 0.07
26 | U9G U28C C45U | 0.08
27 | C10A C18A U20G A25G C37U | 0
28 | U9G U38G G40U | 0.01
29 | C10A A14U G29A | 0.02
30 | U9G U20A G21A G33U G36C | 0.01
31 | C10A A11G A39G | 0.02
32 | U9G U20G G44U | 0.04
33 | C10A A41G C42A | 0.02
34 | C10A C13G A14C | 0.02
35 | C10A A16G A41C | 0
36 | C10A C15A C46A | 0.07
37 | C10A A14U G21A | 0.01
38 | C10A A26U C31A | 0.02
39 | C10A C15G G27U | 0.02
40 | C10A A12C A25C | 0.04
41 | C10A A12U C15U G22A | 0.01
42 | U9G G21U A26C | 0.05
43 | U9G G21U A26U | 0.06
44 | C10A C15U C46A | 0
45 | C10A A16C G21U C37G | 0.02
46 | C10A A25G G36U | 0
47 | C10A A39G G44C | 0.01
48 | C10A C13A C15A G35U | 0.03

Row | Variant | self-cleavage
49 | C10A A11G A16C A39U | 0
50 | U9G G21U U34G | 0.01
51 | C10A A16C G17C C18A C37A | 0.01
52 | C10A C13U G44U | 0.02
53 | U9G G17U A24C U28G | 0.08
54 | C10A A12C G21U U43A | 0.03
55 | C10A C15U G17A G19U A41G | 0.03
56 | U9G U20G U34A C45A | 0.04
57 | C10A A14C G21C U28C | 0.01
58 | U9G G21A G27C C37U A41U C45A | 0.04
59 | U9G G30A C46U | 0.06
60 | C10A A14U U43A | 0.05
61 | C10A A14U U43C | 0.01
62 | C10A A11G G36A U38G | 0.02
63 | C10A C15A A16U U28C | 0.05
64 | C10A A14C C15G A16C | 0
65 | U9G G17A C23G U28G G40C | 0.05
66 | U9G G22U U32C G44A | 0.07
67 | C10A C13A C23A G35U | 0.01
68 | U9G G33U U34A | 0.03
69 | U9G G17U G27A G30C G36C U43G | 0
70 | U9G G27C G30U C31G | 0.02
71 | C10A A12C G30C | 0.01
72 | C10A A26U C31U U38G A39G G44U | 0.02

Row | Variant | self-cleavage
73 | C10A A12U A16G G17U G22U | 0.02
74 | U9G G21C U43A C46A | 0.01
75 | C10A A11U A14C U20A C23A A24G A26G C37A C42G | 0
76 | U9G G17U G29C G35A C45U | 0.05
77 | U9G G17U C37U C42G | 0.02
78 | U9G G29A A39C G44C | 0.02
79 | C10A A12C U20G | 0.03
80 | U9G G29C U38G C45G | 0.05
81 | C10A A26U G33U A41G | 0.01
82 | U9G G33C G44U | 0.03
83 | C10A A26G C31G | 0.03
84 | U9G G29U A41G | 0.23
85 | C10A A14U C45G | 0.02
86 | C10A A24C G33U | 0.37
87 | C10A A12G G19A C46U | 0.03
88 | C10A C13U A16C | 0.01
89 | U9G G22U U34A C46U | 0.12
90 | C10A A11G C13A G17U A25U | 0.02
91 | C10A C15U A24C | 0.04
92 | C10A C15G G21C | 0.04
93 | U9G G19U C23U | 0.12
94 | C10A A25C G30U | 1.04
95 | C10A C15U G29A C37A | 0.01
96 | C10A C15U G19A A24C | 0.07

Row | Variant | self-cleavage
97 | C10A C15U U34G | 0.02
98 | C10A C13A C18G | 0.03
99 | C10A A11U U20A | 0.04
100 | U9G G27U G36A | 0.1
101 | C10A A11C A26C | 0.02
102 | C10A A11G G22A A26U A41U | 0.01
103 | C10A A16U A24U | 0.03
104 | U9G G22A C46A | 0.11
105 | C10A A25C G35U A41U U43A | 0.02
106 | C10A A14G A26C G29A G35C G36U | 0.12
107 | C10A A12U C46A | 0.02
108 | C10A A12G C13U G19A G44U | 0.02
109 | C10A A24G G27U C31G U32G U43A | 0.01
110 | U9G G35U G40C G44C | 0.03
111 | C10A C15G G19U C23A | 0.02
112 | C10A A16G U32C | 0.05
113 | C10A C15U A16G U32C | 0.02
114 | C10A A24G G33C | 0.02
115 | U9G C37U U38G C42A | 0.04
116 | U9G G22U A25C A39C | 0.01
117 | C10A C15A A24C | 0.07
118 | C10A C15A U20A C31U | 0.03
119 | U9G G17A A26C G35A | 0.01
120 | C10A A11G A14U | 0.07

Row | Variant | self-cleavage
121 | C10A C15A A41C C42G U43G | 0.02
122 | C10A A12G G17A A26U A41U C45U | 0.02
123 | C10A A11C A16C A24G C37G | 0
124 | C10A A14G G35U | 0.01
125 | U9G G27A C31U C37A | 0.06
126 | C10A A12G G33C | 0
127 | C10A C15U G17C G21U C23G G36A | 0.03
128 | C10A A12U C37U U38A | 0.02
129 | C10A C13U G17C A41C | 0.02
130 | C10A C13U G22A | 0.13
131 | C10A C13U A14G U32G C42A | 0.04
132 | U9G G27U A39G C45A C46A | 0.08
133 | C10A C13G G22C C31U C46A | 0.02
134 | C10A A12C G27U C42G | 0.01
135 | C10A A12G C15G G17U | 0.01
136 | C10A C13A G29U | 0.01
137 | C10A A12U A24U A39U | 0.05
138 | C10A A12C A39G | 0.04
139 | C10A C15U G21A G29A C46G | 0.03
140 | U9G G21C A25C A26U G33U | 0.08
141 | C10A C13A A39G | 0.03
142 | C10A C15A G30A | 0.01
143 | C10A C13G G21U G27A | 0.03
144 | U9G G30U G36U C45U | 0.02

Row | Variant | self-cleavage
145 | C10A A16U G29C | 0.01
146 | C10A C18G G22A U28G C42G U43A | 0.01
147 | C10A A39G A41U G44A | 0.08
148 | U9G G36U A39U G40U | 0.15
149 | U9G G36U A39C | 0
150 | C10A A16G G19U C31A | 0.01
151 | C10A A11U C15G G30C U43A | 0.03
152 | C10A A16U A24C C31U G40C | 0.04
153 | C10A A24C G35C A39G | 0
154 | C10A A25C G29U G33U C45U | 0.03
155 | C10A A41C C42U | 0.01
156 | C10A A11G C46A | 0.02
157 | C10A C15G A16C G19U | 0
158 | U9G G17A G22C A24C A26C G29C G33U G35C U38A | 0
159 | C10A A12C A26C A41C | 0
160 | C10A A11C G19A A25C G29C | 0.01
161 | U9G U28G C37U U43C | 0.04
162 | C10A A14C C23A G29U | 0.04
163 | C10A A14G G19U U32A U38A C42U | 0.01
164 | U9G G30U U34A | 0.04
165 | C10A A12C G21A | 0.06
166 | U9G G19A G21C | 0.05
167 | C10A A12C U20C C23U G40C C45A | 0.01
